Measured values as given in PubChem BioAssay AID1768 (National Center for Advancing Translational Sciences (NCATS), 2009).
Among all 270,000 compounds or so, about 620 (0.23%) were called active. This list was built around the results that the source calls inconclusive (neither active nor inactive); the mix of calls is not that of the screen. Calls come from the whole dose curve; as a rule, active = well fitted inhibition curve with a large enough effect in the polarisation, with a control signal flat (not every such curve was filed as active); inconclusive = small, poorly fitted or top-dose-only effect, or effect the other way, or a change in a side signal; inactive = no such curve, though single readings can be large or run the other way; the % refers to the polarisation. Potencies beside an inconclusive call are fits to weak or partial responses and may not hold up. A note “side channel” means that the fit belongs to a control or component signal, not to the main read-out.

target: Menin (Homo sapiens) (UniProt O00255); experiment: qHTS Assay for Inhibitors Targeting the Menin-MLL Interaction in MLL Related Leukemias: Competition With Texas Red Labeled MLL-derived Mutant Peptide; settings: fluorescence polarization; FP activity change, negative = inhibition: at 61.6 µM (top of the series); for FP activity change, negative = inhibition: % of control where 0% means no effect
Potency is the fitted concentration of half-maximal effect; tags give direction and shape of the fitted curve or compound fluorescence and quenching.

UniProt O00255, sequence (O00255 whole entry, looked up): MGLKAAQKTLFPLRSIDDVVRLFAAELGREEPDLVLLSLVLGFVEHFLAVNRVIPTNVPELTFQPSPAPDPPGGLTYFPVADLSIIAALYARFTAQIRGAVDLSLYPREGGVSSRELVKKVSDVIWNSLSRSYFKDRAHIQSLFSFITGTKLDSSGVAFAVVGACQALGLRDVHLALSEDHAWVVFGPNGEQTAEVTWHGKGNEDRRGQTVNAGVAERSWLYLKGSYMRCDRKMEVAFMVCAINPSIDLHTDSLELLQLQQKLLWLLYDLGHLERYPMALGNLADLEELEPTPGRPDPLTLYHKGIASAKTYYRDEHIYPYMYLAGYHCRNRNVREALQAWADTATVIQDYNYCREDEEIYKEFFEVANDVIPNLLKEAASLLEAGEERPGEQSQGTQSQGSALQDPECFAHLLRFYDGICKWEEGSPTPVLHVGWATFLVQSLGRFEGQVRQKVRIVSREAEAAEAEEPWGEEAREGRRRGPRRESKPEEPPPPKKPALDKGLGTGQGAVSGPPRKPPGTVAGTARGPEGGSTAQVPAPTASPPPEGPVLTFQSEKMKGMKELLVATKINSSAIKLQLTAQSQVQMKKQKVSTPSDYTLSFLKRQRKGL

SMILES	Potency	FP activity change, negative = inhibition
Cc1cnc(C(=O)OCC(=O)c2csc(N3CCCCC3)n2)cn1	inconclusive: 39.8 µM [quencher, side channel, single point]	–
COc1ccccc1-n1c(=O)c2c3c(sc2n2c(=S)[nH]nc12)CCC3	inconclusive: 39.8 µM [quencher, side channel, single point]	–
COc1ccc(Sc2cc(C(F)(F)F)nc(-c3ccccn3)n2)cc1	inconclusive: 1.58 µM [inhibitor, full curve]	–
O=C(NC1CCCCC1)N1CCC(c2nc3ccccc3[nH]2)CC1	–	inactive: -0.456%
CCCC(=O)NC(c1cccs1)c1cc([N+](=O)[O-])c2cccnc2c1O (stereo not drawn)	inconclusive: 28.2 µM [quencher, side channel, single point]	–
COc1ccc(/C=N/NC(=O)c2nc(-c3ccccc3)cc(-c3ccccc3)n2)cc1OC	–	inactive: -8.88%
CCCCC/C=C\C/C=C\CCCCCCCCCC(=O)NCC(=O)O	inconclusive: 11.2 µM [quencher, side channel, partial curve]	–
CCOc1ccc2[nH]c(=O)c(CN(CCc3ccccc3)C(=O)N3CCCC3)cc2c1	inconclusive: 3.16 µM [fluorescent, side channel, partial curve]	–
N#Cc1c(SCC(=O)Nc2ccc(Cl)cc2Cl)sc2c(O)cc(=O)[nH]c12	inconclusive: 22.4 µM [quencher, side channel, single point]	–
O=C(NCc1ccco1)c1nn2cccnc2c1Cl	inconclusive: 35.5 µM [inhibitor, single point]	–
CCCS(=O)(=O)c1c(S(=O)(=O)CCC)c2c(C)cccn2c1C(=O)N/N=C/c1cc(O)cc(O)c1	inconclusive: 7.94 µM [quencher, side channel, partial curve]	–
COc1cc(O)c(C(=O)/C=C/c2ccccc2)c(O)c1	–	inactive: -3.34% [at 11.7 µM]
CC(=O)NCCn1c(SCC(=O)c2ccc(Cl)cc2)nc2ccccc2c1=O	inconclusive: 31.6 µM [fluorescent, side channel, single point]	–
CCSc1nsc(NC(=O)Nc2ccccc2OC)n1	inconclusive: 39.8 µM [quencher, side channel, partial curve]	–
O=C(NCC1CCCO1)c1ccc[nH]1 (stereo not drawn)	inconclusive: 0.126 µM [quencher, side channel, full curve]	–
O=C(Cc1ccccc1)c1ccccc1C(=O)N1CCCCC1	inconclusive: 39.8 µM [fluorescent, side channel, single point]	–
Cc1ccc(C(C)(C)C)cc1S(=O)(=O)Nc1nc2ccccc2nc1Cl	inconclusive: 28.2 µM [quencher, side channel, single point]	–
c1coc(-c2ncc[nH]2)c1	inconclusive: 28.2 µM [inhibitor, single point]	–
Cc1cccc(/C(N)=N/OC(=O)c2ccc3c(c2)OCO3)c1	–	inactive: -4.11%

SMILES	Potency	FP activity change, negative = inhibition
COc1ccc(CN(CCC(c2ccccc2)c2ccc(OC(C)C)cc2)C(=O)CCl)cc1OC (stereo not drawn)	inconclusive: 3.55 µM [fluorescent, side channel, full curve]	–
Cc1nc(NC(=O)c2cccc(Cl)c2)sc1C(=O)N1CCCCC1	inconclusive: 7.08 µM [inhibitor, single point]	–
CC/C(=C/c1sc2ccc(C)cc2[n+]1CCCS(=O)(=O)[O-])SC	inconclusive: 20 µM [fluorescent, side channel, partial curve]	–
c1cc2c3c(cccc3c1)NC1(CCCCC1)N2	inconclusive: 12.6 µM [quencher, side channel, partial curve]	–
Cc1ccc(N=Cc2cc(Cc3ccccc3Cl)cc([N+](=O)[O-])c2O)c(O)c1	inconclusive: 11.2 µM [quencher, side channel, partial curve]	–
Cc1[nH]c2ccccc2c1C(=O)CNc1nccs1	–	inactive: -1.1%
O=C(CC(=O)c1ccccc1O)c1cccc(F)c1	inconclusive: 28.2 µM [quencher, side channel, single point]	–
Cc1ccc(NC(=O)Cn2c(CCC(=O)O)ccc2-c2ccc(Cl)cc2)cc1	inconclusive: 25.1 µM [quencher, side channel, partial curve]	–
O=C1c2cccc3c(O)ccc(c23)C(=O)N1Cc1ccccc1	–	inactive: 22.6%
COc1cc(OC)c(C2C(C(=O)O)c3ccccc3C(=O)N2C)cc1OC (stereo not drawn)	inconclusive: 3.16 µM [inhibitor, partial curve]	–
Cc1ccccc1NC(=S)N1CCN(c2ccccc2)CC1	inconclusive: 39.8 µM [fluorescent, side channel, single point]	–
CCOC(=O)c1[nH]c(C)c(C(=O)OCc2c(C)noc2C)c1C	inconclusive: 3.16 µM [inhibitor, single point]	–
CCOC(=O)C1CCCN(S(=O)(=O)c2cc(OCC(=O)NC3CCCCC3)c(C)cc2Cl)C1 (stereo not drawn)	inconclusive: 2.82 µM [fluorescent, side channel, full curve, poor fit]	–
COC(=O)c1sccc1NC(=O)Nc1cc(OC)ccc1OC	inconclusive: 25.1 µM [quencher, side channel, partial curve]	–
CNC(=O)CSc1nnc(-c2ccco2)n1-c1cc(C)ccc1C	–	inactive: 2.38%
COc1ccc(N=Nc2ccc3ccccc3c2)c(O)c1	inconclusive: 2.82 µM [quencher, side channel, full curve, poor fit]	–
COc1ccc(NC(=O)C2=CC(c3ccc(OC)c(OC)c3)=NS(=O)(=O)N2C)cc1	inconclusive: 22.4 µM [quencher, side channel, single point]	–
Cc1ccc(C(=O)NC(=S)Nc2ccc(CN3CCCCC3)cc2)c(C)c1	inconclusive: 12.6 µM [fluorescent, side channel, partial curve]	–
FCCCOc1ccc(-c2nccc(-c3ccc(Br)cc3)n2)cc1	inconclusive: 31.6 µM [quencher, side channel, single point]	–
